Test results: patent US20110091463A1 (AbbVie / Abbott, published 2011)

Key:
IL-6R on TF-1 cells = target: T1, IL-6R on TF-1 cells (UniProt P08887 20-468, limits assumed); assay: cell-based or functional assay
T1 sequence (looked up): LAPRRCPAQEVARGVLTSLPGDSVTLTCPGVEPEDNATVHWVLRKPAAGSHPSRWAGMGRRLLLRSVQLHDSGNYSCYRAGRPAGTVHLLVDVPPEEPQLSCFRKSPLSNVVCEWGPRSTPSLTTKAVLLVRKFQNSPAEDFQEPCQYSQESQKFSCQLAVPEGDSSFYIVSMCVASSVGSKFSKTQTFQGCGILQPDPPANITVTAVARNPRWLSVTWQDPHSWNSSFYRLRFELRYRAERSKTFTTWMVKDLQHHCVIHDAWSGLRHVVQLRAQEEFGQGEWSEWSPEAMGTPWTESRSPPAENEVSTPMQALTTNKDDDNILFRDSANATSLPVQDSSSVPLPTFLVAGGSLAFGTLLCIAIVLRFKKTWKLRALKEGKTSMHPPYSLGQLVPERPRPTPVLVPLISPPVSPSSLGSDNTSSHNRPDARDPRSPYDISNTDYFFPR

[1] = target: NGF (Neuroscreen-1 bioassay); assay: cell-based or functional assay
Recombinant Human β-NGF = target: T2, Recombinant Human β-NGF (human, UniProt P01138 in part); assay: SPR (Biacore), DVD-Ig captured on chip, antigen injected, 25 C
T2 construct: Bought reagent
Experimental: The BIACORE assay (Biacore, Inc, Piscataway, N.J.) determines the affinity of antibodies or DVD-Ig with kinetic measurements of on-rate and off-rate constants. Binding of antibodies or DVD-Ig to a target antigen (for example, a purified recombinant target antigen) is determined by surface plasmon resonance-based measurements with a Biacore® 1000 or 3000 instrument (Biacore® AB, Uppsala, Sweden) using running HBS-EP (10 mM HEPES [pH 7.4], 150 mM NaCl, 3 mM EDTA, and 0.005% surfactant P20) at 25° C. All chemicals are obtained from Biacore® AB (Uppsala, Sweden) or otherwise from a different source as described in the text. For example, approximately 5000 RU of goat anti-mouse IgG, (Fcγ), fragment specific polyclonal antibody (Pierce Biotechnology Inc, Rockford, Ill.) diluted in 10 mM sodium acetate (pH 4.5) is directly immobilized across a CM5 research grade biosensor chip using a standard amine coupling kit according to manufacturer's instructions and procedures at 25 μg/ml. Unreacted moieties on the biosensor surface are blocked with ethanolamine. Modified carboxymethyl dextran surface in flowcell 2 and 4 is used as a reaction surface. Unmodified carboxymethyl dextran without goat anti-mouse IgG in flow cell 1 and 3 is used as the reference surface. For kinetic analysis, rate equations derived from the 1:1 Langmuir binding model are fitted simultaneously to association and dissociation phases of all eight injections (using global fit analysis) with the use of Biaevaluation 4.0.1 software. Purified antibodies or DVD-Ig are diluted in HEPES-buffered saline for capture across goat anti-mouse IgG specific reaction surfaces. […] The association and dissociation rate constants, kₒₙ (M⁻¹ s⁻¹) and koff (s⁻¹) are determined under a continuous flow rate of 25 μl/min. […] The equilibrium dissociation constant (M) of the reaction between antibodies or DVD-Igs and the target antigen is then calculated from the kinetic rate constants by the following formula: KD=koff/kₒₙ. Binding is recorded as a function of time and kinetic rate constants are calculated.

Recombinant Human β-NGF, sequence (P01138 122-241 limits assumed): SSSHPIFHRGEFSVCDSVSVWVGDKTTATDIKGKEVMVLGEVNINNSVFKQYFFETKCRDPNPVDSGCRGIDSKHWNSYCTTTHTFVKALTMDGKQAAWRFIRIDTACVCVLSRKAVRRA

B1: DVD1218 (bispecific antibody, human IgG1, kappa)
heavy: QVQLQESGPGLVKPSETLSLTCTVSGFSLIGYDLNWIRQPPGKGLEWIGIIWGDGTTDYNSAVKSRVTISKDTSKNQFSLKLSSVTAADTAVYYCARGGYWYATSYYFDYWGQGTLVTVSSASTKGPEVQLQESGPGLVRPSQTLSLTCTVSGYSITSDHAWSWVRQPPGRGLEWIGYISYSGITTYNPSLKSRVTMLRDTSKNQFSLRLSSVTAADTAVYYCARSLARTTAMDYWGQGSLVTVSS[human IgG1 constant region not written out]
light: DIQMTQSPSSLSASVGDRVTITCRASQSISNNLNWYQQKPGKAPKLLIYYTSRFHSGVPSRFSGSGSGTDFTFTISSLQPEDIATYYCQQEHTLPYTFGQGTKLEIKRTVAAPDIQMTQSPSSLSASVGDRVTITCRASQDISSYLNWYQQKPGKAPKLLIYYTSRLHSGVPSRFSGSGSGTDFTFTISSLQPEDIATYYCQQGNTLPYTFGQGTKVEIKRTVAAPSVFIFPPSDEQLKSGTASVVCLLNNFYPREAKVQWKVDNALQSGNSQESVTEQDSKDSTYSLSSTLTLSKADYEKHKVYACEVTHQGLSSPVTKSFNRGEC
C-Terminal VD IL-6 Inhibition Assay EC50 µM (IL-6 induced pSTAT3 in TF-1 cells) (IL-6R on TF-1 cells): 0.202 µM | N-Terminal VD NGF Inhibition Assay EC50 pM (ERK1/2 phosphorylation in Neuroscreen-1 cells) [1]: 67.5 pM

B2: DVD1219 (bispecific antibody, human IgG1, kappa)
heavy: EVQLQESGPGLVRPSQTLSLTCTVSGYSITSDHAWSWVRQPPGRGLEWIGYISYSGITTYNPSLKSRVTMLRDTSKNQFSLRLSSVTAADTAVYYCARSLARTTAMDYWGQGSLVTVSSASTKGPQVQLQESGPGLVKPSETLSLTCTVSGFSLIGYDLNWIRQPPGKGLEWIGIIWGDGTTDYNSAVKSRVTISKDTSKNQFSLKLSSVTAADTAVYYCARGGYWYATSYYFDYWGQGTLVTVSS[human IgG1 constant region not written out]
light: DIQMTQSPSSLSASVGDRVTITCRASQDISSYLNWYQQKPGKAPKLLIYYTSRLHSGVPSRFSGSGSGTDFTFTISSLQPEDIATYYCQQGNTLPYTFGQGTKVEIKRTVAAPDIQMTQSPSSLSASVGDRVTITCRASQSISNNLNWYQQKPGKAPKLLIYYTSRFHSGVPSRFSGSGSGTDFTFTISSLQPEDIATYYCQQEHTLPYTFGQGTKLEIKRTVAAPSVFIFPPSDEQLKSGTASVVCLLNNFYPREAKVQWKVDNALQSGNSQESVTEQDSKDSTYSLSSTLTLSKADYEKHKVYACEVTHQGLSSPVTKSFNRGEC
notes: DVD-Ig; also called DVD1219H; DVD1219L
N-Terminal VD IL-6 Inhibition Assay EC50 µM (IL-6 induced pSTAT3 in TF-1 cells) (IL-6R on TF-1 cells): 0.0142 µM | Kd (Recombinant Human β-NGF): 0.491 nM | koff (Recombinant Human β-NGF): 0.000179 s⁻¹ | kon (Recombinant Human β-NGF): 365000 M⁻¹ s⁻¹ | C-Terminal VD NGF Inhibition Assay EC50 pM (ERK1/2 phosphorylation in Neuroscreen-1 cells) [1]: > 5000 pM

B3: DVD1206 (bispecific antibody, human IgG1, kappa)
heavy: EVQLVESGGGLVQPGGSLRLSCAASGFSLTNNNVNWVRQAPGKGLEWVGGVWAGGATDYNSALKSRFTISRDNSKNTAYLQMNSLRAEDTAVYYCARDGGYSSSTLYAMDAWGQGTLVTVSSASTKGPEVQLQESGPGLVRPSQTLSLTCTVSGYSITSDHAWSWVRQPPGRGLEWIGYISYSGITTYNPSLKSRVTMLRDTSKNQFSLRLSSVTAADTAVYYCARSLARTTAMDYWGQGSLVTVSS[human IgG1 constant region not written out]
light: DIQMTQSPSSLSASVGDRVTITCRASEDIYNALAWYQQKPGKAPKLLIYNTDTLHTGVPSRFSGSGSGTDYTLTISSLQPEDFATYFCQHYFHYPRTFGQGTKVEIKRTVAAPDIQMTQSPSSLSASVGDRVTITCRASQDISSYLNWYQQKPGKAPKLLIYYTSRLHSGVPSRFSGSGSGTDFTFTISSLQPEDIATYYCQQGNTLPYTFGQGTKVEIKRTVAAPSVFIFPPSDEQLKSGTASVVCLLNNFYPREAKVQWKVDNALQSGNSQESVTEQDSKDSTYSLSSTLTLSKADYEKHKVYACEVTHQGLSSPVTKSFNRGEC
C-Terminal VD IL-6 Inhibition Assay EC50 µM (IL-6 induced pSTAT3 in TF-1 cells) (IL-6R on TF-1 cells): 0.103 µM | N-Terminal VD NGF Inhibition Assay EC50 pM (ERK1/2 phosphorylation in Neuroscreen-1 cells) [1]: 7.5 pM
